Article PMC4752221
Results are given in words; binding and its absence hold for the method and conditions named. For some of these results: Binding seen in cells or lysates may run through a third protein. Some entries that bind do so weakly or less than the wild type. For some of these results: Sequences can lack the tags named with a protein.

Sequences of proteins named here, by UniProt entry; tags and fusion partners are left off.
UniProt P04456: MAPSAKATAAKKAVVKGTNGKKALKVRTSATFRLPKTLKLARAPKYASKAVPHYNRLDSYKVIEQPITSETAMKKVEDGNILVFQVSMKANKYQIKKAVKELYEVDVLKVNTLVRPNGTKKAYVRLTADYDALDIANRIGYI
UniProt Q3E757: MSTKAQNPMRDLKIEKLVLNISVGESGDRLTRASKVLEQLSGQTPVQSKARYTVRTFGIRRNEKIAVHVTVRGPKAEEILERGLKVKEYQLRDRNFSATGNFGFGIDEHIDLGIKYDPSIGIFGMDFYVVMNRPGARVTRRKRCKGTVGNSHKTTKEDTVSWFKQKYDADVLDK

Legend:
[1] = biological target: Rpl25-GFP (S. cerevisiae) (UniProt P04456); test: co-IP; Rpl25-GFP on GFP-Trap_A beads from pooled sucrose-gradient fractions of the free ribosomal subunits of wild type yeast lysate; PBSKMT buffer (0.3% Triton-X 100), 4.5 h at 4°C; Western blot
[2] = biological target: Rpl25-GFP (S. cerevisiae) (UniProt P04456); test: co-IP; Rpl25-GFP on GFP-Trap_A beads from pooled polysomal sucrose-gradient fractions of wild type yeast lysate, samples treated with 0.1 mg/ml RNase A; PBSKMT buffer (0.3% Triton-X 100), 4.5 h at 4°C; Western blot
Arx1-GFP (S. cerevisiae) = biological target: T1, Arx1-GFP (S. cerevisiae) (UniProt Q03862); test: co-IP; GFP-tagged bait on GFP-Trap_A beads from clarified yeast lysate, PBSKMT (0.5% Triton-X 100), 3 h at 4°C, no RNase A treatment indicated; Western blot; in some panels wild type and drg1-18 cells shifted for 1 h to 37°C
T1 sequence: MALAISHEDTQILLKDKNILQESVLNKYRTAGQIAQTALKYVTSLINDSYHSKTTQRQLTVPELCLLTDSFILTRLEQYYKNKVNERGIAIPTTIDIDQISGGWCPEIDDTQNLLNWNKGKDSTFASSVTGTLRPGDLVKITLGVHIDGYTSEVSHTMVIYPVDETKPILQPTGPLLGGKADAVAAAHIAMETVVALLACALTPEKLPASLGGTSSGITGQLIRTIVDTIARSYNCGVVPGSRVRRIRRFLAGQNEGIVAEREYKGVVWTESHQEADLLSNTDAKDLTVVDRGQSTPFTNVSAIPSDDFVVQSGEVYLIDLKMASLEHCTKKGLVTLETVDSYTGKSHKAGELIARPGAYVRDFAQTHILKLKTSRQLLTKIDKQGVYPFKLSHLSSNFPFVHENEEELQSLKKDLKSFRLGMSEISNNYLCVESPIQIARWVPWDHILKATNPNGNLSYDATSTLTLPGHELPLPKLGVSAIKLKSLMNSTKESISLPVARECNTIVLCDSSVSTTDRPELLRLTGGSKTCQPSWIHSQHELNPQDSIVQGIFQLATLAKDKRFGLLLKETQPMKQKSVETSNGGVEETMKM

GFP-Dbp5 (S. cerevisiae) [3] = biological target: T2, GFP-Dbp5 (S. cerevisiae) (UniProt P20449); test: as above
T2 sequence: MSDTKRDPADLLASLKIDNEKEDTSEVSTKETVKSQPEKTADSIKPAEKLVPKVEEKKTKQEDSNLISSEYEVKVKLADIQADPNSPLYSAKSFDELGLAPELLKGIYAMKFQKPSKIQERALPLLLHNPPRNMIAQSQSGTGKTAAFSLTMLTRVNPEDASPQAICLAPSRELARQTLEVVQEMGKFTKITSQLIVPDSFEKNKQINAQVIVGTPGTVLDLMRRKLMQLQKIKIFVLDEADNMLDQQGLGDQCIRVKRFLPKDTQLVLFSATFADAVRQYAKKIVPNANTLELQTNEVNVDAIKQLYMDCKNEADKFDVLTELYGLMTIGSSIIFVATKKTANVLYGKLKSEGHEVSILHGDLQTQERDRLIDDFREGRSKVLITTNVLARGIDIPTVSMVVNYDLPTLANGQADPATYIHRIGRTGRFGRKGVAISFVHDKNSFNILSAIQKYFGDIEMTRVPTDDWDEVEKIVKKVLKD

GFP-Dbp5 (S. cerevisiae) [4] = biological target: T2, GFP-Dbp5 (S. cerevisiae); test: co-IP; GFP-tagged bait on GFP-Trap_A beads from clarified yeast lysate, PBSKMT (0.5% Triton-X 100), 3 h at 4°C, samples treated with 0.2 mg/ml RNase A for 30 min at 4°C; Western blot; in some panels wild type and dbp5 mutant cells after a 1 h temperature shift
[5] = biological target: Rpl11b-GFP (S. cerevisiae) (UniProt Q3E757); test: as above
Dbp5-GFP (S. cerevisiae) = biological target: T3, Dbp5-GFP (S. cerevisiae) (UniProt P20449); test: co-IP; GFP-tagged bait on GFP-Trap_A beads from clarified yeast lysate, PBSKMT (0.5% Triton-X 100), 3 h at 4°C, no RNase A treatment indicated; Western blot; in some panels wild type and drg1-18 cells shifted for 1 h to 37°C
T3 sequence: T2 sequence

[6] = biological target: T4, Mex67-GFP (S. cerevisiae) (UniProt Q99257); test: co-IP; GFP-tagged bait on GFP-Trap_A beads from clarified yeast lysate, PBSKMT (0.5% Triton-X 100), 3 h at 4°C, samples treated with 0.2 mg/ml RNase A for 30 min at 4°C; Western blot; in some panels wild type and dbp5 mutant cells after a 1 h temperature shift
T4 sequence: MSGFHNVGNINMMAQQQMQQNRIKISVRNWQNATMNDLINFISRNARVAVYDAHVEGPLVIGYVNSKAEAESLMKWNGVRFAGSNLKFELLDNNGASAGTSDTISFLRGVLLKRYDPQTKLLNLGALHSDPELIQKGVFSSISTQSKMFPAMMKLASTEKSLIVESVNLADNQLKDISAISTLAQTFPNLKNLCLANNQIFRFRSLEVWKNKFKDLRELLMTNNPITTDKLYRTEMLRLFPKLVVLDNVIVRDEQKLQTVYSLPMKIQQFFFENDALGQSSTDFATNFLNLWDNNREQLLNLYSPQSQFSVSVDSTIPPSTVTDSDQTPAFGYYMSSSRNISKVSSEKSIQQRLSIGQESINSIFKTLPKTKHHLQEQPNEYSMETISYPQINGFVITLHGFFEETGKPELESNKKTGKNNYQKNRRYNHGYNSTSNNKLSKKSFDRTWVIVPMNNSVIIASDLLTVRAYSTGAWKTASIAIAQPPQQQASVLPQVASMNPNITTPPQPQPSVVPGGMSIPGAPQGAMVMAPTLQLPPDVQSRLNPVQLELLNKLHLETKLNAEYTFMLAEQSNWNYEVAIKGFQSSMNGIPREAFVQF

His-Mtr2 (S. cerevisiae) = biological target: T5, His-Mtr2 (S. cerevisiae) (UniProt P34232); test: co-purification (Ni-NTA affinity chromatography); His-Mtr2 and Mex67 co-expressed in E. coli BL21 DE3, heterodimer purified on Protino Ni-NTA agarose
T5 sequence: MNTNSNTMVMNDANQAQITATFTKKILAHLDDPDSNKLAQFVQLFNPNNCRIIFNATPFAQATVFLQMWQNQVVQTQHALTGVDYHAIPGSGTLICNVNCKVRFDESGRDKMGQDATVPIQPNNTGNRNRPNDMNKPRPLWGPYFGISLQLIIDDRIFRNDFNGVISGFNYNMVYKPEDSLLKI

B1: Mex67 (protein, UniProt Q99257 1-599)
chain: T4 sequence
- binding [1]: binds
- binding [2]: binds weakly
- binding (Arx1-GFP (S. cerevisiae)): binds
- binding (GFP-Dbp5 (S. cerevisiae) [3]): binds
- binding (GFP-Dbp5 (S. cerevisiae) [4]): binds weakly
- binding [5]: binds

B2: Nmd3-13xmyc (protein, UniProt P38861 1-518)
chain: MEFTPIDPHQHQNAATLLCCNCGTPIDGSTGLVMCYDCIKLTVDITQGIPREANISFCRNCERFLQPPGQWIRAELESRELLAICLRRLKGLTKVRLVDASFIWTEPHSRRIRIKLTVQGEAMTNTIIQQTFEVEYIVIAMQCPDCARSYTTNTWRATVQIRQKVPHKRTFLFLEQLILKHNAHVDTISISEAKDGLDFFYAQKNHAVKMIDFLNAVVPIKHKKSEELISQDTHTGASTYKFSYSVEIVPICKDDLVVLPKKLAKSMGNISQFVLCSKISNTVQFMDPTTLQTADLSPSVYWRAPFNALADVTQLVEFIVLDVDSTGISRGNRVLADITVARTSDLGVNDQVYYVRSHLGGICHAGDSVMGYFIANSNYNSDLFDGLNIDYVPDVVLVKKLYQRKSKKSRHWKLKRMAKEHKDIDASLDYNSRAQKQEMERAEKDYELFLQELEEDAELRQSVNLYKNREANVPPEEHEMDEDEDEDAPQINIDELLDELDEMTLEDGVENTPVESQQ
- binding (Arx1-GFP (S. cerevisiae)): binds
- binding (Dbp5-GFP (S. cerevisiae)): binds
- binding (GFP-Dbp5 (S. cerevisiae) [3]): binds

B3: Rps3 (protein, UniProt P05750 1-240)
chain: MVALISKKRKLVADGVFYAELNEFFTRELAEEGYSGVEVRVTPTKTEVIIRATRTQDVLGENGRRINELTLLVQKRFKYAPGTIVLYAERVQDRGLSAVAQAESMKFKLLNGLAIRRAAYGVVRYVMESGAKGCEVVVSGKLRAARAKAMKFADGFLIHSGQPVNDFIDTATRHVLMRQGVLGIKVKIMRDPAKSRTGPKALPDAVTIIEPKEEEPILAPSVKDYRPAEETEAQAEPVEA
- binding [2]: binds
- binding [6]: binds
- binding [5]: binds

B4: Rpl35 (protein, UniProt P0CX84 1-120)
chain: MAGVKAYELRTKSKEQLASQLVDLKKELAELKVQKLSRPSLPKIKTVRKSIACVLTVINEQQREAVRQLYKGKKYQPKDLRAKKTRALRRALTKFEASQVTEKQRKKQIAFPQRKYAIKA
- binding [6]: binds

B5: Mex67 (recombinant) (protein, UniProt Q99257 1-599)
chain: T4 sequence
- binding (His-Mtr2 (S. cerevisiae)): binds

B6: Aco1 (protein, UniProt P19414 17-778)
chain: ATVSNLTRDSKVNQNLLEDHSFINYKQNVETLDIVRKRLNRPFTYAEKILYGHLDDPHGQDIQRGVSYLKLRPDRVACQDATAQMAILQFMSAGLPQVAKPVTVHCDHLIQAQVGGEKDLKRAIDLNKEVYDFLASATAKYNMGFWKPGSGIIHQIVLENYAFPGALIIGTDSHTPNAGGLGQLAIGVGGADAVDVMAGRPWELKAPKILGVKLTGKMNGWTSPKDIILKLAGITTVKGGTGKIVEYFGDGVDTFSATGMGTICNMGAEIGATTSVFPFNKSMIEYLEATGRGKIADFAKLYHKDLLSADKDAEYDEVVEIDLNTLEPYINGPFTPDLATPVSKMKEVAVANNWPLDVRVGLIGSCTNSSYEDMSRSASIVKDAAAHGLKSKTIFTVTPGSEQIRATIERDGQLETFKEFGGIVLANACGPCIGQWDRRDIKKGDKNTIVSSYNRNFTSRNDGNPQTHAFVASPELVTAFAIAGDLRFNPLTDKLKDKDGNEFMLKPPHGDGLPQRGYDAGENTYQAPPADRSTVEVKVSPTSDRLQLLKPFKPWDGKDAKDMPILIKAVGKTTTDHISMAGPWLKYRGHLENISNNYMIGAINAENKKANCVKNVYTGEYKGVPDTARDYRDQGIKWVVIGDENFGEGSSREHAALEPRFLGGFAIITKSFARIHETNLKKQGLLPLNFKNPADYDKINPDDRIDILGLAELAPGKPVTMRVHPKNGKPWDAVLTHTFNDEQIEWFKYGSALNKIKADEKK
- binding [2]: no binding
- binding [5]: no binding
